Assay results from publication PMC12820563, “FoxP3 forms a head-to-head dimer in vivo and stabilizes its multimerization on adjacent microsatellites”.
This is one part of the list.

Each sequence was assayed against T1, MBP-FoxP1dN (Mus musculus, UniProt P58462 326-579) (assay: PD-seq (MBP pull-down with sequencing); 20 mM Tris-HCl pH 7.5, 100 mM NaCl, 1.5 mM MgCl2, 0.4 uM protein, 0.1 uM dsDNA library, 30 min, room temperature, amylose pull-down; high values mean tight binding). Conditions: protein: recombinant; tags: His6-MBP; chain copies: 2; dsDNA, one strand shown.
T1 sequence: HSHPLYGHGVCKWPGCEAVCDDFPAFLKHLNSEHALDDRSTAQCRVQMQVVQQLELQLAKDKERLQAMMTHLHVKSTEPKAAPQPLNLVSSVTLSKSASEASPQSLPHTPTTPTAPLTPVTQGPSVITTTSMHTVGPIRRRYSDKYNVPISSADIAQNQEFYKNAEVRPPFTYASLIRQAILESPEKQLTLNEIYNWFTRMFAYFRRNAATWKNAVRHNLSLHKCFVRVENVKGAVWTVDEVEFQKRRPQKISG
Method in brief: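 A fragment of mouse FoxP3 or FoxP1 without its N-terminus, carrying a His6-MBP tag and produced in E. coli, was combined at 0.4 µM with a 0.1 µM degenerate double-stranded DNA library filled in with Klenow. The mixture sat for 30 min at room temperature in Tris pH 7.5 buffer containing NaCl and MgCl2. Protein–DNA complexes were captured on amylose resin, washed three times, and the DNA was freed with proteinase K, barcoded by PCR and sequenced on Illumina. Binding is expressed as reads-per-million enrichment of pull-down over input, with replicates pooled.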

With “GATGATTGTTCTCCCAGCTGATGAATTTTGACGATCGAGTAAACAAATTTTCCTAATCTTTCTGTTCAAGCGCCATCTAC” as the sequence, how does the binding signal read?
Its binding signal is 0.961 RPM ratio (pull-down/input).

“GATGATTGTTCTCCCAGCTGATGAATTCGTTCTGTCGAGTAAACAAATTTTCCTAATCTTTCTGTTCAAGCGCCATCTAC” was tested. Which binding signal did it give?
Its binding signal is 0.884 RPM ratio (pull-down/input).

“GATGATTGTTCTCCCAGCTGATGAATTTGTCATTTCGAGTAAACAAATTTTCCTAATCTTTCTGTTCAAGCGCCATCTAC” was tested. Which binding signal did it give?
The binding signal was 1.14 RPM ratio (pull-down/input).

With “GATGATTGTTCTCCCAGCTGATGAATTCACATAGTCGAGTAAACAAATTTTCCTAATCTTTCTGTTCAAGCGCCATCTAC” as the sequence, how does the binding signal read?
Its binding signal is 0.923 RPM ratio (pull-down/input).

For “GATGATTGTTCTCCCAGCTGATGAATTTCTAGTTTCGAGTAAACAAATTTTCCTAATCTTTCTGTTCAAGCGCCATCTAC”, which binding signal is on record?
Its binding signal is 0.858 RPM ratio (pull-down/input).

“GATGATTGTTCTCCCAGCTGATGAATTATATACTTCGAGTAAACAAATTTTCCTAATCTTTCTGTTCAAGCGCCATCTAC” was tested. Which binding signal did it give?
Its binding signal is 1.04 RPM ratio (pull-down/input).

“GATGATTGTTCTCCCAGCTGATGAATTTGGAGAATCGAGTAAACAAATTTTCCTAATCTTTCTGTTCAAGCGCCATCTAC” was tested. Which binding signal did it give?
Its binding signal is 0.952 RPM ratio (pull-down/input).

Which binding signal does the source give for “GATGATTGTTCTCCCAGCTGATGAATTGGGCGATTCGAGTAAACAAATTTTCCTAATCTTTCTGTTCAAGCGCCATCTAC” here?
Its binding signal is 0.946 RPM ratio (pull-down/input).

Which binding signal does the source give for “GATGATTGTTCTCCCAGCTGATGAATTCCATGCCTCGAGTAAACAAATTTTCCTAATCTTTCTGTTCAAGCGCCATCTAC” here?
The binding signal was 0.84 RPM ratio (pull-down/input).

For “GATGATTGTTCTCCCAGCTGATGAATTGTTGATATCGAGTAAACAAATTTTCCTAATCTTTCTGTTCAAGCGCCATCTAC”, which binding signal is on record?
The binding signal was 2.16 RPM ratio (pull-down/input).

Which binding signal does the source give for “GATGATTGTTCTCCCAGCTGATGAATTCCAGATTTCGAGTAAACAAATTTTCCTAATCTTTCTGTTCAAGCGCCATCTAC” here?
The binding signal was 0.838 RPM ratio (pull-down/input).

With “GATGATTGTTCTCCCAGCTGATGAATTATCAACTTCGAGTAAACAAATTTTCCTAATCTTTCTGTTCAAGCGCCATCTAC” as the sequence, how does the binding signal read?
The binding signal was 1.02 RPM ratio (pull-down/input).

With “GATGATTGTTCTCCCAGCTGATGAATTTAAATGGTCGAGTAAACAAATTTTCCTAATCTTTCTGTTCAAGCGCCATCTAC” as the sequence, how does the binding signal read?
Its binding signal is 0.899 RPM ratio (pull-down/input).

With “GATGATTGTTCTCCCAGCTGATGAATTGCCCATATCGAGTAAACAAATTTTCCTAATCTTTCTGTTCAAGCGCCATCTAC” as the sequence, how does the binding signal read?
Its binding signal is 1.03 RPM ratio (pull-down/input).

“GATGATTGTTCTCCCAGCTGATGAATTGACTCTTTCGAGTAAACAAATTTTCCTAATCTTTCTGTTCAAGCGCCATCTAC” was tested. Which binding signal did it give?
Its binding signal is 1.16 RPM ratio (pull-down/input).

Which binding signal does the source give for “GATGATTGTTCTCCCAGCTGATGAATTCGGCACATCGAGTAAACAAATTTTCCTAATCTTTCTGTTCAAGCGCCATCTAC” here?
The binding signal was 0.962 RPM ratio (pull-down/input).

“GATGATTGTTCTCCCAGCTGATGAATTAAGTACATCGAGTAAACAAATTTTCCTAATCTTTCTGTTCAAGCGCCATCTAC” was tested. Which binding signal did it give?
Its binding signal is 1.15 RPM ratio (pull-down/input).

With “GATGATTGTTCTCCCAGCTGATGAATTCACACCATCGAGTAAACAAATTTTCCTAATCTTTCTGTTCAAGCGCCATCTAC” as the sequence, how does the binding signal read?
Its binding signal is 1.03 RPM ratio (pull-down/input).

“GATGATTGTTCTCCCAGCTGATGAATTACCTAGATCGAGTAAACAAATTTTCCTAATCTTTCTGTTCAAGCGCCATCTAC” was tested. Which binding signal did it give?
Its binding signal is 0.958 RPM ratio (pull-down/input).

For “GATGATTGTTCTCCCAGCTGATGAATTGTTGTACTCGAGTAAACAAATTTTCCTAATCTTTCTGTTCAAGCGCCATCTAC”, which binding signal is on record?
The binding signal was 1.62 RPM ratio (pull-down/input).

With “GATGATTGTTCTCCCAGCTGATGAATTACTCTGGTCGAGTAAACAAATTTTCCTAATCTTTCTGTTCAAGCGCCATCTAC” as the sequence, how does the binding signal read?
The binding signal was 0.966 RPM ratio (pull-down/input).

With “GATGATTGTTCTCCCAGCTGATGAATTAGTATGCTCGAGTAAACAAATTTTCCTAATCTTTCTGTTCAAGCGCCATCTAC” as the sequence, how does the binding signal read?
The binding signal was 1.06 RPM ratio (pull-down/input).

“GATGATTGTTCTCCCAGCTGATGAATTCTATTGCTCGAGTAAACAAATTTTCCTAATCTTTCTGTTCAAGCGCCATCTAC” was tested. Which binding signal did it give?
Its binding signal is 1.06 RPM ratio (pull-down/input).

With “GATGATTGTTCTCCCAGCTGATGAATTGAAGATATCGAGTAAACAAATTTTCCTAATCTTTCTGTTCAAGCGCCATCTAC” as the sequence, how does the binding signal read?
Its binding signal is 0.965 RPM ratio (pull-down/input).

For “GATGATTGTTCTCCCAGCTGATGAATTTGTGCGATCGAGTAAACAAATTTTCCTAATCTTTCTGTTCAAGCGCCATCTAC”, which binding signal is on record?
Its binding signal is 1.08 RPM ratio (pull-down/input).

How did the binding signal turn out when “GATGATTGTTCTCCCAGCTGATGAATTGAACCAATCGAGTAAACAAATTTTCCTAATCTTTCTGTTCAAGCGCCATCTAC” was run?
The binding signal was 1.02 RPM ratio (pull-down/input).

With “GATGATTGTTCTCCCAGCTGATGAATTGGCCAAGTCGAGTAAACAAATTTTCCTAATCTTTCTGTTCAAGCGCCATCTAC” as the sequence, how does the binding signal read?
The binding signal was 0.813 RPM ratio (pull-down/input).

“GATGATTGTTCTCCCAGCTGATGAATTCGATTAGTCGAGTAAACAAATTTTCCTAATCTTTCTGTTCAAGCGCCATCTAC” was tested. Which binding signal did it give?
The binding signal was 0.829 RPM ratio (pull-down/input).

“GATGATTGTTCTCCCAGCTGATGAATTCTTACGCTCGAGTAAACAAATTTTCCTAATCTTTCTGTTCAAGCGCCATCTAC” was tested. Which binding signal did it give?
Its binding signal is 0.936 RPM ratio (pull-down/input).

For “GATGATTGTTCTCCCAGCTGATGAATTGGGCTTCTCGAGTAAACAAATTTTCCTAATCTTTCTGTTCAAGCGCCATCTAC”, which binding signal is on record?
The binding signal was 0.82 RPM ratio (pull-down/input).

For “GATGATTGTTCTCCCAGCTGATGAATTGTCCCTGTCGAGTAAACAAATTTTCCTAATCTTTCTGTTCAAGCGCCATCTAC”, which binding signal is on record?
The binding signal was 1.01 RPM ratio (pull-down/input).

Which binding signal does the source give for “GATGATTGTTCTCCCAGCTGATGAATTTGAATCGTCGAGTAAACAAATTTTCCTAATCTTTCTGTTCAAGCGCCATCTAC” here?
The binding signal was 0.833 RPM ratio (pull-down/input).

For “GATGATTGTTCTCCCAGCTGATGAATTGTTGGGATCGAGTAAACAAATTTTCCTAATCTTTCTGTTCAAGCGCCATCTAC”, which binding signal is on record?
Its binding signal is 1.28 RPM ratio (pull-down/input).

For “GATGATTGTTCTCCCAGCTGATGAATTGATTTGCTCGAGTAAACAAATTTTCCTAATCTTTCTGTTCAAGCGCCATCTAC”, which binding signal is on record?
Its binding signal is 1.02 RPM ratio (pull-down/input).

With “GATGATTGTTCTCCCAGCTGATGAATTAGGTTCTTCGAGTAAACAAATTTTCCTAATCTTTCTGTTCAAGCGCCATCTAC” as the sequence, how does the binding signal read?
The binding signal was 0.915 RPM ratio (pull-down/input).

Which binding signal does the source give for “GATGATTGTTCTCCCAGCTGATGAATTAAACCTCTCGAGTAAACAAATTTTCCTAATCTTTCTGTTCAAGCGCCATCTAC” here?
Its binding signal is 0.822 RPM ratio (pull-down/input).

“GATGATTGTTCTCCCAGCTGATGAATTTCTTGTATCGAGTAAACAAATTTTCCTAATCTTTCTGTTCAAGCGCCATCTAC” was tested. Which binding signal did it give?
Its binding signal is 1.06 RPM ratio (pull-down/input).

With “GATGATTGTTCTCCCAGCTGATGAATTATTTAAATCGAGTAAACAAATTTTCCTAATCTTTCTGTTCAAGCGCCATCTAC” as the sequence, how does the binding signal read?
Its binding signal is 1.24 RPM ratio (pull-down/input).

Which binding signal does the source give for “GATGATTGTTCTCCCAGCTGATGAATTAATCGTTTCGAGTAAACAAATTTTCCTAATCTTTCTGTTCAAGCGCCATCTAC” here?
Its binding signal is 1.02 RPM ratio (pull-down/input).

For “GATGATTGTTCTCCCAGCTGATGAATTAGTAATCTCGAGTAAACAAATTTTCCTAATCTTTCTGTTCAAGCGCCATCTAC”, which binding signal is on record?
The binding signal was 1.04 RPM ratio (pull-down/input).
